Data from the supplement of paper PMC11876631.
± gives the standard deviation of the averaged measurements. Laboratory Escherichia coli strains with one amino-acid change in an essential protein, pooled on minimal glucose agar with carbenicillin or gentamicin at twice the control MIC (plus kanamycin and chloramphenicol for the plasmids), 48 h. Fold change of barcode share against drug-free plates; higher = less susceptible. Active = above 20 in both replicates (the paper's putatively resistant). '<' = one read or none on drug, '>' = one read or none on a drug-free plate. Shares are relative, so most strains fall below 1 when a few take over. Listed are strains with at least 15 reads on both drug-free plates, and hits; most hits rest on fewer reference reads. Replicate rank correlation about 0.5. Edits are read from barcodes.

Molecular target: Escherichia coli (laboratory strain)
Assay: barcode share on antibiotic plates over drug-free plates; higher = less susceptible
Method: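 A pool of E. coli strains, each edited to carry one amino-acid change in an essential protein, was grown for 48 h on minimal glucose agar with or without antibiotic; strain barcodes were sequenced; mean of two replicates.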

[1] = antibiotic: carbenicillin, 2× MIC (3.1 µg/mL)
[2] = antibiotic: gentamicin, 2× MIC (MIC 0.45 µg/mL)

Row | Protein | fold change of barcode share [1] | fold change of barcode share [2]
1 | ispA L51A (protein) MDFPQQLEACVKQANQALSRFIAPLPFQNTPVVETMQYGALLGGKRLRPFAVYATGHMFGVSTNTLDAPAAAVECIHAYSLIHDDLPAMDDDDLRRGLPTCHVKFGEANAILAGDALQTLAFSILSDADMPEVSDRDRISMISELASASGIAGMCGGQALDLDAEGKHVPLDALERIHRHKTGALIRAAVRLGALSAGDKGRRALPVLDKYAESIGLAFQVQDDILDVVGDTATLGKRQGADQQLGKSTYPALLGLEQARKKARDLIDDARQSLKQLAEQSLDTSALEALADYIIQRNK | 0.491 ± 0.14 | 1.22 ± 1.7
2 | ispA L18A (protein) MDFPQQLEACVKQANQAASRFIAPLPFQNTPVVETMQYGALLGGKRLRPFLVYATGHMFGVSTNTLDAPAAAVECIHAYSLIHDDLPAMDDDDLRRGLPTCHVKFGEANAILAGDALQTLAFSILSDADMPEVSDRDRISMISELASASGIAGMCGGQALDLDAEGKHVPLDALERIHRHKTGALIRAAVRLGALSAGDKGRRALPVLDKYAESIGLAFQVQDDILDVVGDTATLGKRQGADQQLGKSTYPALLGLEQARKKARDLIDDARQSLKQLAEQSLDTSALEALADYIIQRNK | 0.472 ± 0.032 | 4.32 ± 5.7
3 | ispA L208A (protein) MDFPQQLEACVKQANQALSRFIAPLPFQNTPVVETMQYGALLGGKRLRPFLVYATGHMFGVSTNTLDAPAAAVECIHAYSLIHDDLPAMDDDDLRRGLPTCHVKFGEANAILAGDALQTLAFSILSDADMPEVSDRDRISMISELASASGIAGMCGGQALDLDAEGKHVPLDALERIHRHKTGALIRAAVRLGALSAGDKGRRALPVADKYAESIGLAFQVQDDILDVVGDTATLGKRQGADQQLGKSTYPALLGLEQARKKARDLIDDARQSLKQLAEQSLDTSALEALADYIIQRNK | 0.31 ± 0.05 | 0.265 ± 0.29
4 | ispA L18W (protein) MDFPQQLEACVKQANQAWSRFIAPLPFQNTPVVETMQYGALLGGKRLRPFLVYATGHMFGVSTNTLDAPAAAVECIHAYSLIHDDLPAMDDDDLRRGLPTCHVKFGEANAILAGDALQTLAFSILSDADMPEVSDRDRISMISELASASGIAGMCGGQALDLDAEGKHVPLDALERIHRHKTGALIRAAVRLGALSAGDKGRRALPVLDKYAESIGLAFQVQDDILDVVGDTATLGKRQGADQQLGKSTYPALLGLEQARKKARDLIDDARQSLKQLAEQSLDTSALEALADYIIQRNK | 0.338 ± 0.011 | 1.12 ± 1.3
5 | ispA L290Q (protein) MDFPQQLEACVKQANQALSRFIAPLPFQNTPVVETMQYGALLGGKRLRPFLVYATGHMFGVSTNTLDAPAAAVECIHAYSLIHDDLPAMDDDDLRRGLPTCHVKFGEANAILAGDALQTLAFSILSDADMPEVSDRDRISMISELASASGIAGMCGGQALDLDAEGKHVPLDALERIHRHKTGALIRAAVRLGALSAGDKGRRALPVLDKYAESIGLAFQVQDDILDVVGDTATLGKRQGADQQLGKSTYPALLGLEQARKKARDLIDDARQSLKQLAEQSLDTSALEAQADYIIQRNK | 0.338 ± 0.12 | < 0.00856
6 | ispA L18Q (protein) MDFPQQLEACVKQANQAQSRFIAPLPFQNTPVVETMQYGALLGGKRLRPFLVYATGHMFGVSTNTLDAPAAAVECIHAYSLIHDDLPAMDDDDLRRGLPTCHVKFGEANAILAGDALQTLAFSILSDADMPEVSDRDRISMISELASASGIAGMCGGQALDLDAEGKHVPLDALERIHRHKTGALIRAAVRLGALSAGDKGRRALPVLDKYAESIGLAFQVQDDILDVVGDTATLGKRQGADQQLGKSTYPALLGLEQARKKARDLIDDARQSLKQLAEQSLDTSALEALADYIIQRNK | 0.482 ± 0.11 | 2.83 ± 3.9
7 | ispA L290A (protein) MDFPQQLEACVKQANQALSRFIAPLPFQNTPVVETMQYGALLGGKRLRPFLVYATGHMFGVSTNTLDAPAAAVECIHAYSLIHDDLPAMDDDDLRRGLPTCHVKFGEANAILAGDALQTLAFSILSDADMPEVSDRDRISMISELASASGIAGMCGGQALDLDAEGKHVPLDALERIHRHKTGALIRAAVRLGALSAGDKGRRALPVLDKYAESIGLAFQVQDDILDVVGDTATLGKRQGADQQLGKSTYPALLGLEQARKKARDLIDDARQSLKQLAEQSLDTSALEAAADYIIQRNK | 0.371 ± 0.13 | 0.0151 ± 0.014
8 | ispA I76Q (protein) MDFPQQLEACVKQANQALSRFIAPLPFQNTPVVETMQYGALLGGKRLRPFLVYATGHMFGVSTNTLDAPAAAVECQHAYSLIHDDLPAMDDDDLRRGLPTCHVKFGEANAILAGDALQTLAFSILSDADMPEVSDRDRISMISELASASGIAGMCGGQALDLDAEGKHVPLDALERIHRHKTGALIRAAVRLGALSAGDKGRRALPVLDKYAESIGLAFQVQDDILDVVGDTATLGKRQGADQQLGKSTYPALLGLEQARKKARDLIDDARQSLKQLAEQSLDTSALEALADYIIQRNK | 0.361 ± 0.039 | 2.87 ± 3.9
9 | ispA L290W (protein) MDFPQQLEACVKQANQALSRFIAPLPFQNTPVVETMQYGALLGGKRLRPFLVYATGHMFGVSTNTLDAPAAAVECIHAYSLIHDDLPAMDDDDLRRGLPTCHVKFGEANAILAGDALQTLAFSILSDADMPEVSDRDRISMISELASASGIAGMCGGQALDLDAEGKHVPLDALERIHRHKTGALIRAAVRLGALSAGDKGRRALPVLDKYAESIGLAFQVQDDILDVVGDTATLGKRQGADQQLGKSTYPALLGLEQARKKARDLIDDARQSLKQLAEQSLDTSALEAWADYIIQRNK | 0.436 ± 0.4 | < 0.011
10 | ispA L208W (protein) MDFPQQLEACVKQANQALSRFIAPLPFQNTPVVETMQYGALLGGKRLRPFLVYATGHMFGVSTNTLDAPAAAVECIHAYSLIHDDLPAMDDDDLRRGLPTCHVKFGEANAILAGDALQTLAFSILSDADMPEVSDRDRISMISELASASGIAGMCGGQALDLDAEGKHVPLDALERIHRHKTGALIRAAVRLGALSAGDKGRRALPVWDKYAESIGLAFQVQDDILDVVGDTATLGKRQGADQQLGKSTYPALLGLEQARKKARDLIDDARQSLKQLAEQSLDTSALEALADYIIQRNK | 2.04 ± 1 | –
11 | ispA V52A (protein) MDFPQQLEACVKQANQALSRFIAPLPFQNTPVVETMQYGALLGGKRLRPFLAYATGHMFGVSTNTLDAPAAAVECIHAYSLIHDDLPAMDDDDLRRGLPTCHVKFGEANAILAGDALQTLAFSILSDADMPEVSDRDRISMISELASASGIAGMCGGQALDLDAEGKHVPLDALERIHRHKTGALIRAAVRLGALSAGDKGRRALPVLDKYAESIGLAFQVQDDILDVVGDTATLGKRQGADQQLGKSTYPALLGLEQARKKARDLIDDARQSLKQLAEQSLDTSALEALADYIIQRNK | 0.225 ± 0.042 | 0.113 ± 0.13
12 | ispA I76A (protein) MDFPQQLEACVKQANQALSRFIAPLPFQNTPVVETMQYGALLGGKRLRPFLVYATGHMFGVSTNTLDAPAAAVECAHAYSLIHDDLPAMDDDDLRRGLPTCHVKFGEANAILAGDALQTLAFSILSDADMPEVSDRDRISMISELASASGIAGMCGGQALDLDAEGKHVPLDALERIHRHKTGALIRAAVRLGALSAGDKGRRALPVLDKYAESIGLAFQVQDDILDVVGDTATLGKRQGADQQLGKSTYPALLGLEQARKKARDLIDDARQSLKQLAEQSLDTSALEALADYIIQRNK | 0.367 ± 0.099 | 2.4 ± 3.2
13 | infC M170W (protein) MKGGKRVQTARPNRINGEIRAQEVRLTGLEGEQLGIVSLREALEKAEEAGVDLVEISPNAEPPVCRIMDYGKFLYEKSKSSKEQKKKQKVIQVKEIKFRPGTDEGDYQVKLRSLIRFLEEGDKAKITLRFRGREMAHQQIGMEVLNRVKDDLQELAVVESFPTKIEGRQWIMVLAPKKKQ | 0.313 ± 0.032 | < 0.0091
14 | infC M170P (protein) MKGGKRVQTARPNRINGEIRAQEVRLTGLEGEQLGIVSLREALEKAEEAGVDLVEISPNAEPPVCRIMDYGKFLYEKSKSSKEQKKKQKVIQVKEIKFRPGTDEGDYQVKLRSLIRFLEEGDKAKITLRFRGREMAHQQIGMEVLNRVKDDLQELAVVESFPTKIEGRQPIMVLAPKKKQ | 0.189 ± 0.0056 | 0.0279 ± 0.037
15 | infC M170Q (protein) MKGGKRVQTARPNRINGEIRAQEVRLTGLEGEQLGIVSLREALEKAEEAGVDLVEISPNAEPPVCRIMDYGKFLYEKSKSSKEQKKKQKVIQVKEIKFRPGTDEGDYQVKLRSLIRFLEEGDKAKITLRFRGREMAHQQIGMEVLNRVKDDLQELAVVESFPTKIEGRQQIMVLAPKKKQ | 0.217 ± 0.049 | 0.0122 ± 0.011
16 | infC M170D (protein) MKGGKRVQTARPNRINGEIRAQEVRLTGLEGEQLGIVSLREALEKAEEAGVDLVEISPNAEPPVCRIMDYGKFLYEKSKSSKEQKKKQKVIQVKEIKFRPGTDEGDYQVKLRSLIRFLEEGDKAKITLRFRGREMAHQQIGMEVLNRVKDDLQELAVVESFPTKIEGRQDIMVLAPKKKQ | 0.377 ± 0.17 | 0.996 ± 1.3
